From PubChem BioAssay AID1645882 (National Center for Advancing Translational Sciences (NCATS), 2021)
Hit rate of the full screen: of about 16,000 compounds, about 120 (0.75%) were called active. Roughly 4% stayed inconclusive and do not appear here. Calls follow the shape of the dose curve; as a rule, active = well fitted inhibition curve with a large enough effect; inconclusive = small, poorly fitted or top-dose-only effect; inactive = no such curve, though single readings can be large or run the other way. This is one part of the list.

Each compound was assayed against Rap guanine nucleotide exchange factor 3 (Homo sapiens) (UniProt O95398) (assay: Validation qHTS for antagonist of cAMP-regulated guanine nucleotide exchange factor 3 (EPAC1)). Settings: EPAC1 Rap1B-BODIPY-GDP exchange, fluorescence; series mostly up to 150 µM; activity change, negative = inhibition: at the top concentration.
Method in brief: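 Nucleotide exchange followed as fluorescence loss when BODIPY-GDP leaves Rap1B (480 nm excitation, 540 nm emission), read at 5 min intervals over 30 min. Reaction: 100 nM EPAC1, 250 nM RAP1B-BODIPY-GDP, 50 uM GDP; ATA and DMSO define normalization.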
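Also: plate controls were DMSO for no effect and ATA control for full effect; nearly all actives have a fitted effect of over 75% in size.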

Chain of UniProt O95398 (O95398 whole entry, looked up): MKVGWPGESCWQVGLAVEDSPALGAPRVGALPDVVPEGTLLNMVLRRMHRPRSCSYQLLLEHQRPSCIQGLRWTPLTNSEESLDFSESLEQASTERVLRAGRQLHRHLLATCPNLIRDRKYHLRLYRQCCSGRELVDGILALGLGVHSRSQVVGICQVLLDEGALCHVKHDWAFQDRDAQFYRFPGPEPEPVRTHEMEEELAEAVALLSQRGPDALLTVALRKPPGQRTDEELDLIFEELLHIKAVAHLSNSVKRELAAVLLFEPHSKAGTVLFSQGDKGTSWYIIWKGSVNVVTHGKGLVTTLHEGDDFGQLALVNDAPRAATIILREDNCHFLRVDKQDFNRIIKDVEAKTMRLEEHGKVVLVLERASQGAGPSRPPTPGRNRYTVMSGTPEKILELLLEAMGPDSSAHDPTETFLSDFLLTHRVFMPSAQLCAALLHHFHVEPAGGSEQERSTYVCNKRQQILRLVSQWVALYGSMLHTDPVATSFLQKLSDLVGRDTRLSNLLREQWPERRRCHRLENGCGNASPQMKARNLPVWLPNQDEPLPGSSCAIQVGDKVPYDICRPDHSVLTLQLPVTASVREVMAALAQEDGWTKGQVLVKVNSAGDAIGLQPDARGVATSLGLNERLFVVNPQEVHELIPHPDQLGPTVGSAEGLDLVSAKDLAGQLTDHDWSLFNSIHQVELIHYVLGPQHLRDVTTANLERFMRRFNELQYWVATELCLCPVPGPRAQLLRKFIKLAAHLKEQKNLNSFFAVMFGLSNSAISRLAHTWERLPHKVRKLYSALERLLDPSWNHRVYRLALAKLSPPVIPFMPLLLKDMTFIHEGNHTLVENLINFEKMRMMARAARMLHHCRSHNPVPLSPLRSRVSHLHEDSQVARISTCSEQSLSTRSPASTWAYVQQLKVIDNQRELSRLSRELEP

| Structure (SMILES) | activity change, negative = inhibition |
| --- | --- |
| Clc1ccc(N2CC3CCC(C2)N3)nn1 | inactive: -10.7% [at 75.8 µM] |
| C[C@]12CCC(=O)C=C1CCc1ccc(O)cc12 | inactive: 9.13% |
| Cc1cccc(C)c1NC1=NCCCS1 | inactive |
| CCCCCN(C)CCC(O)(P(=O)(O)O)P(=O)(O)O | inactive |
| Nc1ccc(N)cc1 | inactive: -1.03% |
| COc1ccc2c(c1O)-c1cc(O)cc3c1[C@@H](C2)N(C)CC3 | inactive: 22% |
| CC(=O)O[C@H]1C[C@H](O[C@H]2[C@@H](O)C[C@H](O[C@H]3[C@@H](O)C[C@H](OC4CC[C@@]5(C)[C@H](CC[C@@H]6[C@@H]5CC[C@]5(C)[C@@H](C7=CC(=O)OC7)CC[C@]65O)C4)O[C@@H]3C)O[C@@H]2C)O[C@H](C)[C@H]1O[C@@H]1O[C@H](CO)[C@@H](O)[C@H](O)[C@H]1O (some centres undefined) | inactive: 1.77% |
| CCC(N)Cc1c[nH]c2ccccc12 (centres undefined) | inactive |
| O=c1cccc2n1CC1CC2CN(CCO)C1 (centres undefined) | inactive: 8.39% |
| C[C@@H]1O[C@@H](O[C@H]2C[C@@H](O)[C@]3(CO)[C@@H]4C(CC[C@]3(O)C2)[C@@]2(O)CC[C@H](C3=CC(=O)OC3)[C@@]2(C)C[C@H]4O)[C@H](O)[C@H](O)[C@H]1O (some centres undefined) | inactive |
| CC(C)(O)[C@H]1O[C@@H]2CC[C@]3(C)[C@@]4(C)c5[nH]c6ccccc6c5C[C@@H]4CC[C@]3(O)C2=CC1=O | inactive: -5.4% |
| CN1CCc2cc3c(cc2C1C1OC(=O)c2c1ccc1c2OCO1)OCO3 (centres undefined) | inactive |
| CC[C@H](Oc1ccc(Cl)cc1)C(=O)OC1C[C@H]2CC[C@@H](C1)N2C (some centres undefined) | inactive: 4.6% |
| O=C(/C=C\c1ccc(Cl)cc1)N[C@@]12CCC(=O)[C@@H]3Oc4c(O)ccc5c4[C@@]31CCN(CC1CC1)[C@@H]2C5 | inactive: 16.4% |
| CCNC(=O)[C@H]1O[C@@H](n2cnc3c(N)ncnc32)[C@H](O)[C@@H]1O | inactive |
| CC(=O)OCC1=C(C(=O)O)N2C(=O)[C@@H](NC(=O)CCC[C@@H](N)C(=O)O)[C@H]2SC1 | inactive: -0.563% [at 75.8 µM] |
| CC1(C)S[C@@H]2[C@H](N)C(=O)N2[C@H]1C(=O)O | inactive: -1.54% [at 75.8 µM] |
| COc1c2c(cc3c1OCO3)CC[N+](C)=C2 | inactive: -3.75% |
| CN1C(=O)COc2c(C(=O)NC3CN4CCC3CC4)cc(Cl)cc21 (centres undefined) | inactive: -2.75% |
| CCN(CC)CCO[C@H]1CC[C@@]2(C)C(=CC[C@@H]3[C@@H]2CC[C@]2(C)C(=O)CC[C@@H]32)C1 | inactive: 8.64% |
| Cc1ccc(S(=O)(=O)N[C@@H](CCCCN)C(=O)CCl)cc1 | inactive |
| CCCN1CCC[C@@H](c2cccc(O)c2)C1 | inactive: -2.45% [at 75.8 µM] |

| Structure (SMILES) | activity change, negative = inhibition |
| --- | --- |
| CC1/C=C/C=C/CC/C=C/C=C/C=C/C=C/C(OC2OC(C)C(O)C(N)C2O)CC2O[C@](O)(CC(O)C(O)CCC(O)CC(O)CC(O)CC(=O)OC(C)C(C)C1O)CC(O)C2C(=O)O (some centres undefined) | inactive: 4.9% |
| O=C1CN=C(c2ccccc2)c2cc([N+](=O)[O-])ccc2N1 | inactive: 21% |
| CC[C@]12CCCN3CCC4(c5ccccc5NC4C(C(=O)O)C1)C32 (some centres undefined) | inactive: -11.2% |
| CCCCCCCCCCCCCC(=O)O[C@@H]1[C@@H](C)[C@@]2(O)[C@@H](C=C(CO)C[C@@]3(O)C(=O)C(C)=C[C@@H]23)C2C(C)(C)[C@@]21OC(C)=O (some centres undefined) | inactive: -20.3% [at 75.8 µM] |
| C[C@]12CC[C@@H](O)C[C@H]1CC[C@@H]1[C@H]2CC[C@]2(C)C(=O)CC[C@@H]12 | inactive: -0.629% |
| N[C@@H](Cc1ccc(Oc2cc(I)c(O)c(I)c2)c(I)c1)C(=O)O | inactive: -27.2% |
| CNC(=O)Oc1cccc2c1OC(C)(C)O2 | inactive: 16.4% |
| O=c1[nH]c(=O)n(Cl)c(=O)n1Cl | inactive: -2.02% |
| CC(C)NC(=O)N1CCC2(CC1)CCN(C(=O)Oc1ccccc1)CC2 | inactive: 12.5% |
| CCCCN(CC)c1c([N+](=O)[O-])cc(C(F)(F)F)cc1[N+](=O)[O-] | inactive: -4.23% |
| CC(=O)OC1CCC23C(=O)OC45CCC(C6=CC(=O)OC6)C4(C)CCC2C5CCC3(O)C1 (centres undefined) | inactive: -2.32% |
| CN1CC[C@@]2(C)c3cc(O)ccc3N(C)[C@@H]12 | inactive: 10.1% |
| CC1=CC(=O)C2=C(C)C[C@H](O)[C@H]3[C@H](C)C(=O)O[C@@H]3C12 (some centres undefined) | inactive: 15% |
| CC(C)NC(C)C | inactive: 2.98% |
| COC(=O)CN1CN(c2ccccc2)C2(CCN(Cc3ccc4ccccc4c3)CC2)C1=O | inactive: -16.9% |
| CC(C)(O)C1C2OC(=O)C1[C@]1(O)CC3O[C@@]34C(=O)OC2[C@@]14C (some centres undefined) | inactive: 13.1% |
| COc1cc2c(cc1OC)C(C)NCC2 (centres undefined) | inactive: 10.2% |
| C=C(C)[C@H]1O[C@H]2CC[C@@]3(C)[C@@](O)(CC[C@H]4[C@@H]5OC(C)(C)[C@H]6C[C@@H]7C(=C)Cc8c(Cl)cc9[nH]c(c5c9c8[C@@]76O)[C@@]43C)[C@]23O[C@@H]3[C@H]1O | inactive: -4.55% |
| COc1ccccc1CN1CC[C@@]2(CCCN(C(=O)Oc3ccccc3)C2)C1 | inactive: -0.285% |
| NC(=O)CN1CCCC1=O | inactive |
| COc1ccc(C[C@H]2NC[C@H](O)[C@@H]2OC(C)=O)cc1 | inactive: 6.76% |
| C[C@@H]1[C@@H]2Cc3ccc(O)cc3[C@@]1(C)CCN2CCc1ccccc1 | inactive: 28.8% [at 320 µM] |

| Structure (SMILES) | activity change, negative = inhibition |
| --- | --- |
| [N-]=[N+]=NCCN1CCC(O)CCC1=O (centres undefined) | inactive: 12.2% |
| O=C(O)/C=C\CO | inactive: 11.6% |
| CC(=O)Oc1ccc(Cl)c2cccnc12 | inactive: 7.81% |
| COc1ccc(C(=O)c2c(C)n(CCN3CCOCC3)c3cc(I)ccc23)cc1 | inactive: -15.1% |
| O=P1(NCCCl)OCCCN1CCCl (centres undefined) | inactive: 6.36% [at 75.8 µM] |
| O=S(=O)(c1ccc(Cl)cc1)c1ccc(Cl)cc1 | inactive: 30% [at 320 µM] |
| c1ccc(N2CCC3(CCNCC3)CC2)cc1 | inactive: -1.07% |
| COC(=O)C(Cl)C(=O)OC | inactive: 39.8% |
| O=C(c1ccncc1)N1CCC2(CC1)CN(Cc1ccccc1)C2 | inactive: 16.5% |
| CN1CC[C@@]2(C)c3cc(OC(=O)Nc4ccccc4)ccc3N(C)[C@@H]12 | inactive |
| Oc1ccc(Cl)cc1 | inactive |
| CC(C)c1c(CN(C)C(C)Cc2ccccc2)n(C)n(-c2ccccc2)c1=O (centres undefined) | inactive: 3.06% [at 75.8 µM] |
| N#CCCN | inactive: -8.89% [at 75.8 µM] |
| Clc1ccc(CCC(Cn2ccnc2)Sc2c(Cl)cccc2Cl)cc1 (centres undefined) | inactive: 7.43% [at 75.8 µM] |
| ClCCN(CCCl)c1ccc(C=Nc2ccc(/C=C/c3ccncc3)cc2)cc1 | inactive: 7.95% |
| CCON=O | inactive: -8.57% |
| CC1CC(C)C(=O)[C@H](C(O)CC2CC(=O)NC(=O)C2)C1 (some centres undefined) | inactive: 9.45% |
| CC(C)NP(=O)(NC(C)C)OP(=O)(NC(C)C)NC(C)C | inactive: -6.69% [at 75.8 µM] |
| C[N+](C)(C)CCOC(=O)C(O)(c1ccccc1)c1ccccc1 | inactive: 9% |
| C[C@@H]1O[C@H](O[C@@H]2C[C@@H](O)[C@]3(CO)[C@H]4[C@H](O)C[C@]5(C)[C@@H](C6=CC(=O)OC6)CC[C@@]5(O)[C@@H]4CC[C@]3(O)C2)[C@@H](O)[C@H](O)[C@H]1O | inactive: 6.89% |
